From PubChem BioAssay AID463173 (ICCB-Longwood Screening Facility, Harvard Medical School, 2010)
The whole screen tested about 52,000 compounds, of which about 1,700 (3.3%) were called active. No stated cut-off is given here; in the data, active means survival mostly below about 52% (no sharp cut-off); inactive means mostly above about 56%. Some of the results follow.

Tested on: Wild type
Assay: S. aureus survival, RN4220 and DeltatarO strains – OD600, teichoic acid synthesis inhibitors, primary screen (AID 463173)
Settings: S. aureus RN4220 wild type/DeltatarO growth, OD600, 18 h, active compounds read low, screened at 18.75 µg/mL (by protocol)

| Structure (SMILES) | survival |
| --- | --- |
| CCc1cccc(NC(=O)CCS(=O)(=O)c2ccc(C)cc2)c1 | inactive: 79% |
| CC(C)CCNC(=O)CSc1nc2ccsc2c(=O)n1Cc1ccccc1Cl | inactive: 72% |
| COc1ccc(NC(=O)C(Cc2ccccc2)n2cccc2)c(OC)c1 (centres undefined) | inactive: 78% |
| O=S(=O)(Nc1nc2n(n1)C(c1ccccc1)C=C(c1ccc(Cl)cc1)N2)c1ccccc1 (centres undefined) | inactive: 65% |
| O=C(c1cc2ccccc2oc1=O)N(Cc1ccc2c(c1)OCO2)CC1CCCO1 (centres undefined) | inactive: 98% |
| COC(=O)CSc1n[nH]c(C)n1 | inactive: 108% |
| COc1ccc(-c2noc(-c3ccccc3NC(=O)c3cc(OC)c(OC)c(OC)c3)n2)cc1 | inactive: 79% |
| COc1ccccc1N1CCN(C(=O)CSc2nc(-c3ccc(C(C)C)cc3)no2)CC1 | inactive: 124% |
| O=C(CSc1nc2ccccc2o1)NN=C1CCCC1 | inactive: 102% |
| O=C(NCc1ccc(Cl)cc1)C1CCCN(c2ncnc3onc(-c4ccc(F)cc4)c23)C1 (centres undefined) | inactive: 68% |
| Cc1cccc(NC(=O)c2c(Br)sc3c2CCCC3)c1 | active: 0% |
| COc1ccc(Nc2nnc(-c3ccc(C)c(S(=O)(=O)N4CCOCC4)c3)c3ccccc23)cc1 | inactive: 84% |
| CCOc1cc(C2c3c(oc4ccc(F)cc4c3=O)C(=O)N2Cc2ccc(C)cc2)ccc1O (centres undefined) | inactive: 141% |
| CCCCNC(=O)CSc1nc2n[nH]c(C)c2c(=N)n1-c1ccccc1CC | inactive: 72% |
| COc1ccc(C2CC(=O)c3c([nH]c(C(=O)OCc4ccccc4)c3C)C2)cc1OC (centres undefined) | inactive: 94% |
| O=C(COc1ccccc1F)Nc1nnc(S(=O)(=O)N2CCCCCC2)s1 | inactive: 64% |
| Cc1ccccc1Cc1c(C)nc2nc(SCC(=O)NC(C)c3ccccc3)nn2c1C (centres undefined) | inactive: 80% |
| CCC1CN(C(=O)Nc2cccc3c2CCCC3)c2cc(C)ccc2O1 (centres undefined) | inactive: 79% |
| CCOC(=O)c1c(C)oc2nc(C)nc(NCCCN3CCN(c4cccc(C)c4)C(C)C3)c12 (centres undefined) | inactive: 127% |
| O=C(NCCCN1CCN(c2ccccc2)CC1)c1cc2c(s1)-c1ccccc1OC2 | inactive: 69% |
| O=C1NC(=O)C(Nc2ccccc2Cl)S1 (centres undefined) | inactive: 108% |
| CCCCNC(=O)C1CCN(Cc2nc(-c3ccc(OC)c(OC)c3)oc2C)CC1 | inactive: 88% |
| CCCOc1cccc(C2c3c(oc4ccc(F)cc4c3=O)C(=O)N2Cc2ccc3c(c2)OCO3)c1 (centres undefined) | inactive: 64% |

| Structure (SMILES) | survival |
| --- | --- |
| Cc1nc(-n2nc(C)c(Cc3ccc4c(c3)OCO4)c2C)sc1C(=O)Nc1ccc(Cl)cc1 | inactive: 121% |
| Cc1ccc(-n2cnc3cc(C(=O)NCc4ccccc4Cl)ccc32)c(C)c1 | active: 10% |
| Cc1ccc2nc(N3CCN(c4ccccc4F)CC3)c3nnnn3c2c1 | inactive: 76% |
| COc1ccc(CC(=O)NCc2ccc3c(c2)CCN3C(=O)c2cccc(C)c2)cc1 | active: -6% |
| CCCCN(Cc1ccco1)C(=O)Cn1ncc2c([nH]c3ccccc32)c1=O | inactive: 148% |
| CN1CCSc2ccc(C(=O)NCc3ccccc3)cc21 | inactive: 72% |
| O=C(c1ccco1)n1nc(-c2ccc(Cl)cc2)nc1NCc1ccc(F)cc1 | inactive: 70% |
| Cc1cccc(Cn2cccc2CNS(=O)(=O)c2ccc(C)c(C)c2)c1 | inactive: 99% |
| CSc1ccc(-c2ccc3c(c2)OCCO3)nn1 | inactive: 93% |
| Cc1cccc(NS(=O)(=O)c2ccc3nc(-c4ccccc4)[nH]c3c2)c1C | inactive: 129% |
| CCOC(=O)c1scc(-c2ccc(C)cc2)c1S(=O)(=O)Nc1ccc(OC)c(Cl)c1 | inactive: 90% |
| Cc1ccc(NC(=O)Cn2c(=O)n(CCC(=O)NCc3ccccc3Cl)c(=O)c3ccccc32)c(C)c1 | inactive: 104% |
| CC(C)OC(=O)CCC1(C(=O)O)CCC(=O)NC1 (centres undefined) | inactive: 103% |
| COc1ccc(C2C(C(=O)Nc3ccccc3)=C(C)Nc3nc(-c4ccccc4Cl)nn32)cc1OC (centres undefined) | inactive: 77% |
| CCOCCCNc1nc2cc(OC)c(OC)cc2c2nc(-c3ccccc3)nn12 | inactive: 69% |
| Clc1ccccc1Nc1ncnc2c1nc1n2CCCCC1 | active: 0% |
| O=C(Nc1ccc2nc(SCCOc3ccccc3)sc2c1)c1ccc2c(c1)OCO2 | inactive: 91% |
| Cc1cccc(Cn2c(=O)n(CC3CCC(C(=O)N4CCC(C)CC4)CC3)c(=O)c3sccc32)c1 (centres undefined) | inactive: 83% |
| O=C(CSc1cn(CC(=O)N2CCCC2)c2ccccc12)Nc1ccccc1C(F)(F)F | inactive: 93% |
| Cc1ccc(C(=O)CSc2nc3ccccc3c(=O)n2Cc2ccco2)cc1 | inactive: 100% |
| COc1cc2[nH]c(=O)n(CCCCCC(=O)N3CCN(c4ccc(Cl)cc4)CC3)c(=O)c2cc1OC | inactive: 95% |
| Cc1ccc(CNC(=O)CN(c2cc(C)cc(C)c2)S(=O)(=O)c2c(C)noc2C)cc1 | inactive: 96% |
| Cc1nc2cc(-c3ccccc3)nn2c(C)c1CCC(=O)NCc1cccc(Cl)c1 | inactive: 84% |

| Structure (SMILES) | survival |
| --- | --- |
| CC(C)NS(=O)(=O)c1ccc(N2C(=O)c3ccccc3C2=O)cc1 | inactive: 99% |
| O=C(Nc1cccc(Br)c1)c1cc(-c2ccc3c(c2)OCCO3)on1 | inactive: 80% |
| COC(=O)c1ccccc1NC(=O)c1ccc2c(Cl)c3c(nc2c1)CCCC3 | inactive: 81% |
| COc1ccc2c(c1)cc1c(=O)n(CC(=O)NCCc3ccccc3)nc(C)n12 | inactive: 81% |
| CCOC(=O)Cc1ccc(NC(=O)N2CC(C)Oc3ccc(Cl)cc32)cc1 (centres undefined) | inactive: 88% |
| COc1cc2nc(NCc3ccccc3)n3nc(-c4ccccc4)nc3c2cc1OC | inactive: 81% |
| Cc1nc2ccn(Cc3cccs3)c(=O)c2cc1C(=O)N1CCN(c2ccccc2)CC1 | inactive: 82% |
| C=CCN(CC=C)C(=O)CN1C(=O)c2ccccc2C1=O | inactive: 107% |
| Cc1ccc2c(c1)N(CC(=O)NCCCN1CCCCC1C)C(=O)c1cccnc1O2 (centres undefined) | inactive: 97% |
| COc1ccc(S(=O)(=O)N2CCC(NC(=O)c3ccccc3)CC2)cc1 | inactive: 109% |
| CCOC(=O)N1CCN(Cc2nc3cc(NC(=O)c4ccccc4OC)ccc3n2C(C)C)CC1 | inactive: 88% |
| Cc1ccc(-n2c(=O)c3ccc(C(=O)NCc4ccco4)cc3n(Cc3ccc(Cl)cc3)c2=O)cc1 | inactive: 80% |
| Cc1ccccc1CNCCSc1nnnn1-c1ccccc1 | inactive: 82% |
| COc1ccc(-n2c(=O)c3ccc(C(=O)NCc4ccc(C)cc4)cc3n(Cc3ccc(C)cc3)c2=O)cc1 | inactive: 82% |
| COc1ccc(CNC(=O)c2nc(S(=O)(=O)Cc3ccccc3)ncc2Cl)cc1 | inactive: 34% |
| COc1ccc(CNC(=O)CCc2c(C)c3cc4c(C)coc4cc3oc2=O)cc1 | inactive: 81% |
| Cc1ccc(-n2nc3c(=O)n(CC(=O)NCc4ccco4)nc(C)c3c2C)cc1 | inactive: 63% |
| Cc1cccc(NC(=O)/C(=C\c2ccco2)NC(=O)c2cccs2)c1 | inactive: 114% |
| Cc1nc2nc(SCC(=O)N(Cc3ccccc3)C(C)C)nn2c(C)c1Cc1ccccc1Cl | inactive: 63% |
| COc1ccc(-c2nc3ccccc3o2)cc1N | inactive: 137% |
| Cc1ccc(-n2c3c(cc(C(=O)NCc4ccco4)c2=O)C(=O)CCC3)cc1 | inactive: 85% |
| Cc1cc(C)c2sc(N3CCN(C(=O)C4CC4)CC3)nc2c1 | inactive: 134% |
| CSc1ccc(CCNc2ncnc3onc(-c4ccc(Cl)cc4)c23)cc1 | inactive: 93% |

| Structure (SMILES) | survival |
| --- | --- |
| Cc1cc(C)c(NC(=O)Cn2c(=O)n(-c3ccc(F)cc3)c(=O)c3c(C)c(C(=O)N(C)C)sc32)c(C)c1 | inactive: 93% |
| O=C(Nc1ccccc1O)c1cccc(S(=O)(=O)Nc2ccccc2O)c1 | inactive: 108% |
| CCc1ccc2ncc3c(-c4ccc(C)cc4)nn(CC(=O)Nc4ccc(C)cc4)c3c2c1 | inactive: 47% |
| COc1ccc(Oc2nc3c(C)cccn3c(=O)c2/C=C(\C#N)c2nc3ccccc3[nH]2)cc1 | inactive: 71% |
| Cc1cc(NC(=O)CC(C)C)c(=O)n(Cc2ccccc2F)c1 | inactive: 107% |
| COC(=O)c1cc2occc2n1Cc1nc(-c2cccc(Br)c2)oc1C | inactive: 78% |
| COc1ccc(C(=O)c2sc(Nc3cc(Cl)ccc3C)nc2N)cc1OC | inactive: 129% |
| CCOc1cc(C2Sc3ccccc3NC3=C2C(=O)c2ccccc23)ccc1O (centres undefined) | inactive: 36% |
| COc1ccc(C(=O)Nc2ccccc2-c2nc3ccccc3s2)c(OC)c1 | inactive: 124% |
| O=C(CSC1CC(=O)N(c2ccccc2)C1=O)Nc1ccc(F)cc1 (centres undefined) | inactive: 82% |
| CCOC(=O)c1ccc(NC(=O)CC2C(=O)N(c3ccc(F)cc3)C(=O)N2Cc2ccc(C)cc2)cc1 (centres undefined) | inactive: 61% |
| COc1ccc(Nc2cc(C(=O)NCCCN(C)Cc3ccccc3)c3ccccc3n2)cc1 | inactive: 120% |
| CCOC(=O)c1cnc2ccc(Cl)cc2c1Nc1ccc(OCC)cc1 | active: -3% |
| CN1C(=O)CC(NCc2ccc(S(N)(=O)=O)cc2)C1=O (centres undefined) | inactive: 103% |
| CC(=O)c1ccc(NC(=O)CCc2nc(-c3ccc(C)cc3)no2)cc1 | inactive: 91% |
| CC(=O)c1ccc(NC(=O)CSc2nc(C3CCCC3)nc3c2c(=O)n(C)c(=O)n3C)cc1 | inactive: 70% |
| Cc1nc(-n2nc(C)c(CCC(C)C)c2C)sc1C(=O)Nc1ccc(Br)cc1 | inactive: 88% |
| Cc1cccn2c(=O)cc(COc3cccc(NC(=O)COc4ccccc4)c3)nc12 | inactive: 80% |
| CC(C)OCCCNC(=O)CSc1c2c(nc3ccc(Cl)cc13)CCCC2 | inactive: 75% |
| COc1cccc(-c2nc3c(c(SCC(=O)Nc4cc(C)ccc4C)n2)Cc2c(CO)cnc(C)c2O3)c1 | inactive: 88% |
